Test results as given in publication PMC6919601, “Identification of Plasmodium dipeptidyl aminopeptidase allosteric inhibitors by high throughput screening” (PLoS ONE, 2019).
Out of some 110,000 compounds screened, about 230 (0.21%) showed an effect of 50% or more. This is one part of the list.

What follows are compounds tested against DPAP1 (Plasmodium falciparum, UniProt Q8IIJ9) (assay: primary screen, percent inhibition; read by cleavage of a fluorogenic dipeptide substrate; higher = more effect of the substance).
Set-up: species or system P. falciparum D10 trophozoite lysates; single well
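Further: 30 min substrate incubation versus DMSO and 10 µM JCP410 controls.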

DPAP1, sequence (Q8IIJ9 whole entry, looked up): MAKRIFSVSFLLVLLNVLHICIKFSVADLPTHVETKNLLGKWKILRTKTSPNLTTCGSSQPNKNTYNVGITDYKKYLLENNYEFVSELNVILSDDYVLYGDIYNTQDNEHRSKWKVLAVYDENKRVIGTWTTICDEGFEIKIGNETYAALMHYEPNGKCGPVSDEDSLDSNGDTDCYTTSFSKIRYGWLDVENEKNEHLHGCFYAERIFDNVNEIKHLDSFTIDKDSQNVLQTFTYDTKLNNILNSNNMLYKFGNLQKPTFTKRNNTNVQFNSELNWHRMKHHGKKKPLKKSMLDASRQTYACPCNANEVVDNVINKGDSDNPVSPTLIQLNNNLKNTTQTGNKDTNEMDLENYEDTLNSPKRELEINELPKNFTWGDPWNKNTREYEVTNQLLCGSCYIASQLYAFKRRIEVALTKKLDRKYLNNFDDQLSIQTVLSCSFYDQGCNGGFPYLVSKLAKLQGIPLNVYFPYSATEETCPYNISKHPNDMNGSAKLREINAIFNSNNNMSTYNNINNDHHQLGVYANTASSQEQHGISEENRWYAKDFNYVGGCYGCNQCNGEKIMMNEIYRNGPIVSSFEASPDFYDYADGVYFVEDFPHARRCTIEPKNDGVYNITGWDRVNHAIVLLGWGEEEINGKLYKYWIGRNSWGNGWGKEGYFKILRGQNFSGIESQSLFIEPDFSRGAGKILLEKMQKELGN

Structure (SMILES) | % Inhibition @ 10 uM [%]
O=C(N/C(=C/c1ccccc1)C(=O)N1CCc2ccccc2C1)c1ccccc1 | 2.18
Cc1c(C)n(C)c2ccc(C(=O)Nc3ccc(C(N)=O)cc3)cc12 | -4.89
Cc1nn(CC(=O)NC2CCCC(C)C2C)c(=O)c2c1sc1ccccc12 (centres unmarked) | -1.01
COc1cc(-c2cc(NC(=O)Cc3noc4ccc(C)cc34)on2)cc(OC)c1OC | -1.38
Cc1nc2c(c(C)c1CCC(=O)NCC1CCCO1)c(=O)n(C)c(=O)n2C (centres unmarked) | -8.91
Nc1c(C(=O)Nc2nccs2)sc2nc3c(c(-c4cccs4)c12)CCCCC3 | -2.17
Cc1csc(NC(=O)CCc2c(C)nc3c(-c4ccc(F)cc4)c(C)nn3c2C)n1 | -4.1
Clc1ccc(CN2CCN(Cc3cccnc3)CC2)cc1 | 6
O=S1(=O)N=C(Nc2c(Cl)cc(Cl)cc2Cl)c2ccccc21 | -1.57
C=CCSc1ncc(C(=O)OCC)c(N)n1 | 2.9
COc1cc(NC(=O)C23CC4CC(CC(C4)C2)C3)c(OC)cc1Cl | 0.317
Nc1nnc(SCC(=O)Nc2ncc(Br)cc2Br)s1 | 17.9
CC(NC(=O)c1cccc(Br)c1)c1ccccc1 (centres unmarked) | -1.69
Cc1ccc(-c2nnc(NC(=O)c3cc4c([nH]c5ccccc54)c(C)n3)s2)cc1 | -6.7
CCn1c(=N)c(C(=O)NC)cc2c(=O)n3ccccc3nc21 | 5.1
Cc1ccc(-n2c(S)nnc2Cn2ncc3ccccc3c2=O)cc1 | 2.31
CC(C)c1ccc(CN2CCN(C)CC2)cc1 | -7.6
CN(CC(=O)NC1CCCCCC1)S(=O)(=O)c1ccc(-c2ccc(O)nn2)s1 | -10.2
CCc1c(CN2CCOCC2)csc1C | 2.83
CC(C)Cc1cc(C(=O)NCCc2ccccc2)no1 | 1.23
COc1cc(OC)c(NC(=O)CC(O)(C(F)(F)F)C(F)(F)F)cc1Cl | -6.66
CC(=O)Nc1ccc(S(=O)(=O)NCc2cccnc2)cc1 | 3.8

Structure (SMILES) | % Inhibition @ 10 uM [%]
O=S(=O)(Cc1ccccc1)CC1CC1(Cl)Cl (centres unmarked) | -5.51
Cc1cccc(NC(=O)c2ccc(Br)o2)c1C | -3.39
Cc1ccc(CNC(=O)CN(C)S(=O)(=O)c2c[nH]cn2)cc1 | -7.28
COc1cc(CN2CCN(C(=O)COc3ccccc3)CC2)cc(OC)c1OC | 8.6
Cn1nc(C(=O)N2CCC3(CC2)OCCO3)c2c1-c1ccccc1S(=O)(=O)C2 | 1.79
COc1ccc(C=C(C#N)C#N)c(OC)c1 | 1.7
CCCCNC(=O)c1sc2ccccc2c1Cl | -0.687
CCOc1ccc(C2C=C(c3ccc(C(C)C)cc3)Nc3nnnn32)cc1 (centres unmarked) | -1.69
CN(CCCc1ccco1)S(=O)(=O)c1ccc(-c2cc(C(F)(F)F)no2)s1 | 1.73
Cc1cc(C)c2oc(C(=O)Nc3nnc(CC(C)C)s3)cc(=O)c2c1 | 3.51
CC(=O)Nc1c(C(=O)N2CCCCCC2)cnn1-c1ccccc1Cl | -1.39
Cc1[nH]c2ccc(C(=O)NCCc3ccc(S(N)(=O)=O)cc3)cc2c1C | -2.65
C=CCN(c1ccccc1)S(=O)(=O)c1ccc(N2C(=O)c3ccccc3C2=O)cc1 | 2.92
Fc1ccc(N2CCN(Cc3cccc(Cl)c3)CC2)cc1 | -0.192
O=C1C(=Cc2c[nH]c3ccccc23)C(=O)N(c2ccccc2)C(=S)N1c1ccccc1 | 9.94
Cc1oc(-c2cccs2)nc1CSCC(=O)NCCc1ccccc1 | -2.85
CCOc1ccc(CCN2CNc3c(C(=O)OC)cnn3C2)cc1 | 0.66
Cn1cc(NC(=O)N2CC=C(c3ccccc3)CC2)c2ccccc2c1=O | 1.76
O=C(NCCc1ccccc1)C(=O)Nc1cccc(Cl)c1 | 3.15
CCOc1ccccc1Cn1c(=O)oc2ccc(C)cc21 | 0.446
CCCCNCCCOc1ccc([N+](=O)[O-])cc1 | -4.18
COc1ccc2ccccc2c1C1C(C(C)=O)=C(C)N=c2s/c(=C\c3ccc(O)cc3)c(=O)n21 (centres unmarked) | -3.98

Structure (SMILES) | % Inhibition @ 10 uM [%]
COc1cc2nc(SCC(=O)NCC3CCCO3)n3nc(-c4ccccc4)nc3c2cc1OC (centres unmarked) | 1.23
COc1cc2nc(N3CCN(C(=O)C4COc5ccccc5O4)CC3)nc(N)c2cc1OC (centres unmarked) | 1.62
CCC(C)NCc1c(C(=O)O)n(Cc2ccc(F)cc2Cl)c2ccccc12 (centres unmarked) | -8.92
O=C(Cn1cnc2ccccc21)c1ccc(Cl)cc1 | -5.92
CC1SC2(NC1=O)C1CC3CC2CC(O)(C3)C1 (centres unmarked) | -4.23
CCC(NC(=O)NC12CC3CC(CC(C3)C1)C2)c1c(-n2cccc2)sc2c1CCN(C)C2 (centres unmarked) | 2.47
COc1cccc(OC)c1C(=O)Nc1nccs1 | 2.92
Cc1cc(C)c(C)c(S(=O)(=O)NCC(=O)Nc2ccc(F)c(Cl)c2)c1C | 1.84
Cc1nc2nc(NC(=O)c3ccc(F)cc3)nn2c(O)c1Cl | -1.31
CN(CC(=O)O)S(=O)(=O)c1cccc2cccnc12 | 1.2
Cn1c(CSc2nc3ccccc3s2)nnc1SCC(=O)NCCO | -3.1
Clc1ccc2oc(-c3ccccc3)c/c(=N\CCN3CCOCC3)c2c1 | -2.98
Cn1c(SCC(=O)Nc2nc3ccccc3s2)nnc1-c1c[nH]c2ccccc12 | 0.44
COc1cc(C(=O)Nc2ncc(Cc3ccc(Cl)cc3)s2)cc(OC)c1OC | 2.94
CSc1ncc(Cl)c(C(=O)NCCc2ccc(S(N)(=O)=O)cc2)n1 | 0.569
O=C1CC(c2ccccc2)NC(=O)N1 (centres unmarked) | -2.86
CC(NC(=O)/C(CCCC#N)=N/O)c1ccccc1 (centres unmarked) | 0.00784
COc1ccc(-c2noc(-c3cc4cc(OC)ccc4oc3=O)n2)cc1 | -7.74
O=C(CSc1nc2c(sc3ccccc32)c(=O)n1CCCN1CCOCC1)c1ccccc1 | 5.74
CN(CC(=O)NCc1ccco1)S(=O)(=O)c1ccc2[nH]c3c(c2c1)CCCC3 | -3.6
Cc1cccc(NC(=O)Cn2nc(C(F)(F)F)cc2C2CC2)c1C | 1.59
